Measured values from article PMC10944491.
Changes are numbered by the printed parent chain. Numbers in names are those of the source. No constants are given. Whether binding was seen depends on the method and setting. For some of these results: In cells and extracts the contact can be indirect. Some entries that bind do so weakly or less than the wild type. For some of these results: Where a sequence is shown, tags or fusion partners need not be part of it. One block for each molecule: values may come before it.

Sequences of proteins named here, by UniProt entry; tags and fusion partners are left off.
UniProt Q13620: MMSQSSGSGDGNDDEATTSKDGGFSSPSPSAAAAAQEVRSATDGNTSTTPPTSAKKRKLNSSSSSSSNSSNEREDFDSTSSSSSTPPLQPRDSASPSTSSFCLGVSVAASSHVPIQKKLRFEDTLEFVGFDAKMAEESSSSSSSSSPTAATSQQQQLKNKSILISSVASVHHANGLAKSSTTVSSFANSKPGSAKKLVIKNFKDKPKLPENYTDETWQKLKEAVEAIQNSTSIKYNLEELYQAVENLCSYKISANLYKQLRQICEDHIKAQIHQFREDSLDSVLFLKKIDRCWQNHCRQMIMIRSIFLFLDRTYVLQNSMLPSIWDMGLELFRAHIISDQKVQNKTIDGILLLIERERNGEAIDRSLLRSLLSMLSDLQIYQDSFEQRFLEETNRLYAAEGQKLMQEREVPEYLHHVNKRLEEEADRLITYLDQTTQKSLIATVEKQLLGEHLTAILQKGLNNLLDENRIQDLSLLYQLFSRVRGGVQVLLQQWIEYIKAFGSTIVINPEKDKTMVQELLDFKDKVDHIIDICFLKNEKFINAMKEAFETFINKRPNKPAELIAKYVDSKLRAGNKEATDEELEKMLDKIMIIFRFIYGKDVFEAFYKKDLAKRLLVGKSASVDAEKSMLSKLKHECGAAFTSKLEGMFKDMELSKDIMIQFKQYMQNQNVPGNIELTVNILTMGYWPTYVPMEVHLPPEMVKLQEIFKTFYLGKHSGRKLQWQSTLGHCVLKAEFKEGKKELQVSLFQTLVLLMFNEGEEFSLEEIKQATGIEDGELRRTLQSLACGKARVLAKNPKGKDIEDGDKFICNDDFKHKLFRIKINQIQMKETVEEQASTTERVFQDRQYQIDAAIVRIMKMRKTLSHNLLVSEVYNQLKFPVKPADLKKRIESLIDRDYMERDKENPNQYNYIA

Assays:
[1] = biological target: T1, SALL2 S763/T778/S802/S806A-Flag (mutant SALL2 4A-Flag) (human) (UniProt Q9Y467); test: co-IP; Flag-tagged SALL2 (WT, 4A or 4D) co-expressed with CK2α K68M-HA in HEK 293 cells; SALL2 precipitated, endogenous CUL4B detected by western blot
T1 sequence: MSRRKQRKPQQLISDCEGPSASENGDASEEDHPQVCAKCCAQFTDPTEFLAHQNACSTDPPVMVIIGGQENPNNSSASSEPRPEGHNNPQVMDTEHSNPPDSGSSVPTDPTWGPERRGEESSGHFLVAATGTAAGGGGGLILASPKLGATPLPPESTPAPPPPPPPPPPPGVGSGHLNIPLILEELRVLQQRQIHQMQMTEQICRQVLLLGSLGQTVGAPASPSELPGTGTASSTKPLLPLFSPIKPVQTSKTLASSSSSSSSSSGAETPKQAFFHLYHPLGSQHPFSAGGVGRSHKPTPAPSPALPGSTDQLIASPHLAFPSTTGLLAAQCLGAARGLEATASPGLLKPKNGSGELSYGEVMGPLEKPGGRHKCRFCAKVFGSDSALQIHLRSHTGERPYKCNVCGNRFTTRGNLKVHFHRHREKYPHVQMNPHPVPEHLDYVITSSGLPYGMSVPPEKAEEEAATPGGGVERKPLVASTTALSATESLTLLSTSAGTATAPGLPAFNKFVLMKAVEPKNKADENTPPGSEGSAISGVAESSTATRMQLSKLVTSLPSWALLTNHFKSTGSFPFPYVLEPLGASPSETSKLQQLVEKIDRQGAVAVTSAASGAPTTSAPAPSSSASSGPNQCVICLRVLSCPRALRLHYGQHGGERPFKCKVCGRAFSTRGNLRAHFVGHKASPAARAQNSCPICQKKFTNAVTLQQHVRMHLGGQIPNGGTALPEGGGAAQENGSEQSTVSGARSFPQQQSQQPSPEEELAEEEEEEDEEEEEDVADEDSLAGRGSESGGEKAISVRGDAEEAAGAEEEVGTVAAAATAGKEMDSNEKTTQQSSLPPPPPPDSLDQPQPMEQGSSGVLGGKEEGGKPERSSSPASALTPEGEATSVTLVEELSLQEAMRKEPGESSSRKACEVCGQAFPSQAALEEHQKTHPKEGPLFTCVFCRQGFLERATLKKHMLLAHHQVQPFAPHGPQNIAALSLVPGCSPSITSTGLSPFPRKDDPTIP

[2] = biological target: T2, SALL2 S763/T778/S802/S806D-Flag (mutant SALL2 4D-Flag) (human) (UniProt Q9Y467); test: as above
T2 sequence: T1 sequence with A763D, A778D, A802D, A806D

[3] = biological target: T3, SALL2 (endogenous) (human (endogenous in HEK 293T)) (UniProt Q9Y467); test: co-IP; endogenous proteins, HEK 293T lysate; precipitated with anti-SALL2 antibody (Bethyl A303-208A), western blot
T3 sequence: T1 sequence with A763S, A778T, A802S, A806S

[4] = biological target: GST-CK2α (UniProt P68400); test: pull-down; GST-CK2α-loaded Glutathione-Sepharose 4B resin incubated with purified hSALL2-His for 12 h in Igepal buffer (Tris 50 mM pH 8.0, NaCl 150 mM, MgCl2 5 mM, Igepal 1%, sodium deoxycholate 0.25%, glycerol 10%); four washes, western blot; both purified
[5] = biological target: T1, SALL2 S763/T778/S802/S806A-Flag (mutant SALL2 4A-Flag) (human); test: co-IP; SALL2-Flag forms co-expressed with HA-tagged CK2α (wild type or K68M) in HEK293 cells; lysate precipitated with anti-Flag or anti-HA, Protein AG Plus-agarose overnight, western blot
[6] = biological target: T2, SALL2 S763/T778/S802/S806D-Flag (mutant SALL2 4D-Flag) (human); test: as above
[7] = biological target: T4, SALL2-Flag (wild type, full length) (human) (UniProt Q9Y467); test: as above
T4 sequence: T1 sequence with A763S, A778T, A802S, A806S

Molecule: Cullin 4B ubiquitin ligase (CUL4B), endogenous (from UniProt Q13620 1-913)
binding [1]: no binding | binding [2]: binds

Molecule: CK2α (endogenous), alpha catalytic subunit of Casein Kinase II (from UniProt P68400 1-391) (enzyme)
binding [3]: binds

Results, then the molecule that gave them:

binding [4]: binds
B1: SALL2-His recombinant protein (full length, FL) (protein, UniProt Q9Y467-1 1-1007)
chain: T1 sequence with A763S, A778T, A802S, A806S

binding [5]: binds | binding [6]: binds | binding [7]: binds
B2: HA-tagged CK2α K68M (dominant-negative mutant) (enzyme, UniProt P68400 1-391)
chain: MSGPVPSRARVYTDVNTHRPREYWDYESHVVEWGNQDDYQLVRKLGRGKYSEVFEAINITNNEKVVVMILKPVKKKKIKREIKILENLRGGPNIITLADIVKDPVSRTPALVFEHVNNTDFKQLYQTLTDYDIRFYMYEILKALDYCHSMGIMHRDVKPHNVMIDHEHRKLRLIDWGLAEFYHPGQEYNVRVASRYFKGPELLVDYQMYDYSLDMWSLGCMLASMIFRKEPFFHGHDNYDQLVRIAKVLGTEDLYDYIDKYNIELDPRFNDILGRHSRKRWERFVHSENQHLVSPEALDFLDKLLRYDHQSRLTAREAMEHPYFYTVVKDQARMGSSSMPGGSTPVSSANMMSGISSVPTPSPLGPLAGSPVIAAANPLGMPVPAAAGAQQ
